# The list shows a part of the results.
# What was measured:
# Experiment in all cases: glycan array binding signal (z-score within array); higher = stronger binding
# Conditions in all cases: glycan notation: IUPAC condensed, linker removed
# [1] = target: GlcNAc(b1-3)Gal(b1-4)GlcNAc(b1-3)Gal(b1-4)GlcNAc(b1-3)GalNAc
# Procedure, shortened: (§1)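 Glycan array binding is given as a within-array Z-score, which can be read as non-binding when negative. The arrays, 3228 of them, came from the Consortium for Functional Glycomics database and were retained only where the protein sequence was available. Z-scores were averaged across arrays of the same protein sequence at different concentrations or buffers and across linkers.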
# [2] = target: GlcNAc(b1-3)Gal(b1-4)GlcNAc(b1-3)GalNAc
# Procedure, shortened: as §1
# [3] = target: GlcNAc(b1-3)Gal(b1-4)GlcNAc(b1-3)[GlcNAc(b1-3)Gal(b1-4)GlcNAc(b1-3)]GalNAc
# Procedure, shortened: as §1
# [4] = target: GlcNAc(b1-3)Gal(b1-4)GlcNAc(b1-6)[Gal(b1-3)]GalNAc
# Procedure, shortened: as §1
# [5] = target: GlcNAc(b1-3)Gal(b1-4)GlcNAc(b1-6)[GlcNAc(b1-3)Gal(b1-3)]GalNAc
# Procedure, shortened: as §1
# [6] = target: GlcNAc(b1-3)Gal(b1-4)GlcNAc(b1-6)[GlcNAc(b1-3)]Gal(b1-4)GlcNAc
# Procedure, shortened: as §1
# [7] = target: GlcNAc(b1-3)GalNAc
# Procedure, shortened: as §1
# [8] = target: GlcNAc(b1-3)Man
# Procedure, shortened: as §1
# [9] = target: GlcNAc(b1-3)[GlcNAc(b1-4)][GlcNAc(b1-6)]GlcNAc
# Procedure, shortened: as §1
# [10] = target: GlcNAc(b1-3)[GlcNAc(b1-6)]Gal(b1-4)GlcNAc
# Procedure, shortened: as §1
# [11] = target: GlcNAc(b1-3)[GlcNAc(b1-6)]GalNAc
# Procedure, shortened: as §1
# [12] = target: GlcNAc(b1-4)Gal(b1-4)GlcNAc
# Procedure, shortened: as §1
# [13] = target: GlcNAc(b1-4)GlcNAc
# Procedure, shortened: as §1
# [14] = target: GlcNAc(b1-4)GlcNAc(b1-4)GlcNAc
# Procedure, shortened: as §1
# [15] = target: GlcNAc(b1-4)GlcNAc(b1-4)GlcNAc(b1-4)GlcNAc(b1-4)GlcNAc
# Procedure, shortened: as §1
# [16] = target: GlcNAc(b1-4)GlcNAc(b1-4)GlcNAc(b1-4)GlcNAc(b1-4)GlcNAc(b1-4)GlcNAc
# Procedure, shortened: as §1
# [17] = target: GlcNAc(b1-4)[GlcNAc(b1-6)]GalNAc
# Procedure, shortened: as §1
# [18] = target: GlcNAc(b1-6)Gal(b1-4)GlcNAc
# Procedure, shortened: as §1
# [19] = target: GlcNAc(b1-6)GalNAc
# Procedure, shortened: as §1
# [20] = target: GlcNAc6S(b1-3)Gal(b1-4)GlcNAc
# Procedure, shortened: as §1
# [21] = target: Kdn(a2-3)Gal(b1-3)GalNAc
# Procedure, shortened: as §1
# [22] = target: Kdn(a2-3)Gal(b1-3)GlcNAc
# Procedure, shortened: as §1
# [23] = target: Kdn(a2-3)Gal(b1-4)Glc
# Procedure, shortened: as §1
# [24] = target: Kdn(a2-3)Gal(b1-4)GlcNAc
# Procedure, shortened: as §1
# [25] = target: Kdn(a2-3)Gal(b1-4)[Fuc(a1-3)]GlcNAc
# Procedure, shortened: as §1
# [26] = target: Kdn(a2-6)Gal(b1-4)GlcNAc
# Procedure, shortened: as §1
# [27] = target: Man(a1-2)Man(a1-2)Man(a1-3)Man
# Procedure, shortened: as §1
# [28] = target: Man(a1-2)Man(a1-2)Man(a1-6)[Man(a1-3)]Man
# Procedure, shortened: as §1
# [29] = target: Man(a1-2)Man(a1-3)Man
# Procedure, shortened: as §1
# [30] = target: Man(a1-2)Man(a1-3)[Man(a1-2)Man(a1-6)]Man
# Procedure, shortened: as §1
# [31] = target: Man(a1-2)Man(a1-3)[Man(a1-2)Man(a1-6)]Man(a1-6)[Man(a1-2)Man(a1-2)Man(a1-3)]Man
# Procedure, shortened: as §1
# [32] = target: Man(a1-2)Man(a1-3)[Man(a1-2)Man(a1-6)]Man(a1-6)[Man(a1-2)Man(a1-2)Man(a1-3)]Man(b1-4)GlcNAc(b1-4)GlcNAc
# Procedure, shortened: as §1
# [33] = target: Man(a1-2)Man(a1-3)[Man(a1-6)]Man(a1-6)[Man(a1-2)Man(a1-3)]Man(b1-4)GlcNAc(b1-4)GlcNAc
# Procedure, shortened: as §1
# [34] = target: Man(a1-2)Man(a1-6)[Man(a1-3)]Man(a1-6)[Man(a1-2)Man(a1-2)Man(a1-3)]Man
# Procedure, shortened: as §1
# [35] = target: Man(a1-2)Man(a1-6)[Man(a1-3)]Man(a1-6)[Man(a1-2)Man(a1-2)Man(a1-3)]Man(b1-4)GlcNAc(b1-4)GlcNAc
# Procedure, shortened: as §1
# [36] = target: Man(a1-3)[Man(a1-6)]Man
# Procedure, shortened: as §1
# [37] = target: Man(a1-3)[Man(a1-6)]Man(a1-6)[Man(a1-2)Man(a1-3)]Man(b1-4)GlcNAc(b1-4)GlcNAc
# Procedure, shortened: as §1
# [38] = target: Man(a1-3)[Man(a1-6)]Man(a1-6)[Man(a1-3)]Man
# Procedure, shortened: as §1
# [39] = target: Man(a1-3)[Man(a1-6)]Man(a1-6)[Man(a1-3)]Man(b1-4)GlcNAc(b1-4)GlcNAc
# Procedure, shortened: as §1
# [40] = target: Man(a1-3)[Man(a1-6)]Man(b1-4)GlcNAc(b1-4)GlcNAc
# Procedure, shortened: as §1
# [41] = target: Man(a1-3)[Man(a1-6)]Man(b1-4)GlcNAc(b1-4)[Fuc(a1-6)]GlcNAc
# Procedure, shortened: as §1
# [42] = target: Man(a1-6)Man
# Procedure, shortened: as §1
# [43] = target: Man(b1-4)GlcNAc
# Procedure, shortened: as §1
# [44] = target: MurNAc(b1-4)GlcNAc
# Procedure, shortened: as §1
# [45] = target: Neu5Ac(a2-3)Gal
# Procedure, shortened: as §1
# [46] = target: Neu5Ac(a2-3)Gal(b1-3)GalNAc
# Procedure, shortened: as §1
# [47] = target: Neu5Ac(a2-3)Gal(b1-3)GalNAc(b1-3)Gal(a1-4)Gal(b1-4)Glc
# Procedure, shortened: as §1
# [48] = target: Neu5Ac(a2-3)Gal(b1-3)GalNAc(b1-4)[Neu5Ac(a2-3)]Gal(b1-4)Glc
# Procedure, shortened: as §1
# [49] = target: Neu5Ac(a2-3)Gal(b1-3)GalNAc(b1-4)[Neu5Ac(a2-8)Neu5Ac(a2-3)]Gal(b1-4)Glc
# Procedure, shortened: as §1
# [50] = target: Neu5Ac(a2-3)Gal(b1-3)GalNAc6S
# Procedure, shortened: as §1
# [51] = target: Neu5Ac(a2-3)Gal(b1-3)GlcNAc
# Procedure, shortened: as §1
# [52] = target: Neu5Ac(a2-3)Gal(b1-3)GlcNAc(b1-2)Man
# Procedure, shortened: as §1
# [53] = target: Neu5Ac(a2-3)Gal(b1-3)GlcNAc(b1-2)Man(a1-3)[GlcNAc(b1-4)][Neu5Ac(a2-3)Gal(b1-3)GlcNAc(b1-2)Man(a1-6)]Man(b1-4)GlcNAc(b1-4)GlcNAc
# Procedure, shortened: as §1
# [54] = target: Neu5Ac(a2-3)Gal(b1-3)GlcNAc(b1-2)Man(a1-3)[Neu5Ac(a2-3)Gal(b1-3)GlcNAc(b1-2)Man(a1-6)]Man(b1-4)GlcNAc(b1-4)GlcNAc
# Procedure, shortened: as §1
# [55] = target: Neu5Ac(a2-3)Gal(b1-3)GlcNAc(b1-3)Gal(b1-3)GlcNAc
# Procedure, shortened: as §1
# [56] = target: Neu5Ac(a2-3)Gal(b1-3)GlcNAc(b1-3)Gal(b1-4)GlcNAc
# Procedure, shortened: as §1
# [57] = target: Neu5Ac(a2-3)Gal(b1-3)GlcNAc(b1-3)GalNAc
# Procedure, shortened: as §1
# [58] = target: Neu5Ac(a2-3)Gal(b1-3)GlcNAc(b1-4)Gal(b1-4)Glc
# Procedure, shortened: as §1
# [59] = target: Neu5Ac(a2-3)Gal(b1-3)GlcNAc(b1-6)GalNAc
# Procedure, shortened: as §1
# [60] = target: Neu5Ac(a2-3)Gal(b1-3)GlcNAc6S
# Procedure, shortened: as §1
binder,measurement,setting,value
PX9896A-bth-573-26-573 (Bacteroides thetaiotaomicron) (protein) ETNNLKTKEDMYKYFGTSKSMLTHVYSYMPQGYQLFATSGGIFTEDRYSMRDCASDDGEFGAYADNIQNTNNGNWSPIKTYDDSWTLYRGIRAANSFIAEIAQVDFTRYEHDGQYTNWMKQLKYFPYEARVLRAHYFFELARRYGDIAMPLEVLTEEEANTIGKTPFSEVISFIVSECDDAANNLPDSYVNEPGAEIGRVTKGFAMAVKSKALLYAASKLHNPSMDTELWKKSAKAAIDIINTGLYSLDPQESANNLDSKEVVLMRINGDDSDFEMFNLPLRMTAGTRTSSLIPYSNYPSQNLVDAFETVNGYKVTLENTGWVCEDPAFDPQSPYENRDKRFYRAILANGMSFKDYTIETFKGGADDGIVSQGGSPTGYFLRKYIQEATSFEPGKEAVSKHHWVIYRYAETLLTYAESMVNAFNDVNYTDETYKYSALWAINEVRKNADMPLIPSMGKDEFMERLYNEWRVEFAFEDHRFWDVRRWKIADTTQRELYGVKIEKQADGTFNFYKNLYETRNWRDCMYLYPIPQSELYKNTNLNPQNTGW,glycan array binding signal (z-score),[1],0.762
same,glycan array binding signal (z-score),[2],-0.039
same,glycan array binding signal (z-score),[3],-0.155
same,glycan array binding signal (z-score),[4],-0.449
same,glycan array binding signal (z-score),[5],-0.058
same,glycan array binding signal (z-score),[6],-0.532
same,glycan array binding signal (z-score),[7],-0.418
same,glycan array binding signal (z-score),[8],-0.375
same,glycan array binding signal (z-score),[9],-0.364
same,glycan array binding signal (z-score),[10],-0.58
same,glycan array binding signal (z-score),[11],-0.616
same,glycan array binding signal (z-score),[12],-0.691
same,glycan array binding signal (z-score),[13],-0.169
same,glycan array binding signal (z-score),[14],0.173
same,glycan array binding signal (z-score),[15],-0.224
same,glycan array binding signal (z-score),[16],-0.604
same,glycan array binding signal (z-score),[17],-0.509
same,glycan array binding signal (z-score),[18],-1.22
same,glycan array binding signal (z-score),[19],-0.811
same,glycan array binding signal (z-score),[20],0.875
same,glycan array binding signal (z-score),[21],0.1
same,glycan array binding signal (z-score),[22],-0.533
same,glycan array binding signal (z-score),[23],0.496
same,glycan array binding signal (z-score),[24],-0.384
same,glycan array binding signal (z-score),[25],-0.25
same,glycan array binding signal (z-score),[26],0.126
same,glycan array binding signal (z-score),[27],-0.707
same,glycan array binding signal (z-score),[28],0.075
same,glycan array binding signal (z-score),[29],-0.062
same,glycan array binding signal (z-score),[30],-0.577
same,glycan array binding signal (z-score),[31],0.109
same,glycan array binding signal (z-score),[32],-0.101
same,glycan array binding signal (z-score),[33],-0.606
same,glycan array binding signal (z-score),[34],-0.132
same,glycan array binding signal (z-score),[35],-0.735
same,glycan array binding signal (z-score),[36],-0.332
same,glycan array binding signal (z-score),[37],0.671
same,glycan array binding signal (z-score),[38],-0.035
same,glycan array binding signal (z-score),[39],-0.145
same,glycan array binding signal (z-score),[40],-0.508
same,glycan array binding signal (z-score),[41],-0.666
same,glycan array binding signal (z-score),[42],0.028
same,glycan array binding signal (z-score),[43],-0.822
same,glycan array binding signal (z-score),[44],-0.548
same,glycan array binding signal (z-score),[45],0.151
same,glycan array binding signal (z-score),[46],-0.359
same,glycan array binding signal (z-score),[47],0.015
same,glycan array binding signal (z-score),[48],-0.656
same,glycan array binding signal (z-score),[49],-0.067
same,glycan array binding signal (z-score),[50],-0.088
same,glycan array binding signal (z-score),[51],-0.406
same,glycan array binding signal (z-score),[52],-0.517
same,glycan array binding signal (z-score),[53],-0.678
same,glycan array binding signal (z-score),[54],0.799
same,glycan array binding signal (z-score),[55],-0.806
same,glycan array binding signal (z-score),[56],0.343
same,glycan array binding signal (z-score),[57],-0.502
same,glycan array binding signal (z-score),[58],-0.475
same,glycan array binding signal (z-score),[59],-0.467
same,glycan array binding signal (z-score),[60],0.324
